According to paper PMC12136788:
This is one part of the list.

B1: ENSG00000136451:be:win_1801|3pUTR|ENSG00000136451|bound_else_gene|NA|bound_elsewhere_windowed (ssRNA)
RNA: GGGAGUUCUACAGUCCGACGAUCGCUUAAACAGGAUAGUAGUUGGCAAGAUGAAAUGCCAGAAUUAAAACCAAUCAUAAGUAGAACCCACUUCAAAAUAAAAAAACAGCAUUACUAUUUCUAAUCCCAAGGAAUCACUUUAUUCAACAGAGGAUUGAGCAUCA
B2: chr4:103158754:103158855:-|CDS|ENSG00000138778|msi1|FALSE|unique (ssRNA)
RNA: GGGAGUUCUACAGUCCGACGAUCGGAGAAAACACGUGAGGUUCAAGAAAGACUAAAUGAGAUGGAACAGCUGAAGGAACAAUUAGAAAAUAGAGAUUCUACGCUGCAAACUGUAGAAAGGGAGAAAACACUGAUUACUGAGAACAACAGAGGAUUGAGCAUCA
B3: chr15:19964665:19964972:-|CDS|ENSG00000188403|control|control|control (ssRNA)
RNA: GGGAGUUCUACAGUCCGACGAUCAUGCACUGGGUGUGCCAGGCCCAUGCACAAGGGCUUGAGUGGAUGGGAUUGGUGUGCCCUAGUGAUGGCAGCACAAGCUAUGCACAGAAGUUCCAGGGCAGAGUCACCAUAACCAGGGACCAACAGAGGAUUGAGCAUCA
B4: chr4:168926953:168927063:+|3pUTR|ENSG00000129116|msi1_unk|FALSE|overlapping (ssRNA)
RNA: GGGAGUUCUACAGUCCGACGAUCCAAAAGAGUUUUCUAACAAGGUUAAUACCUUAGUUCUUAACAUUUUUUUUCUUUAUGUGUAGUGUUUUCAUGCUACCUUGGUAGGAAACUUAUUUACAAACCAUAUUAAAAGGCUAAUUUCAACAGAGGAUUGAGCAUCA
B5: chr14:100881274:100881386:-|CDS|ENSG00000254656|unk|FALSE|unique (ssRNA)
RNA: GGGAGUUCUACAGUCCGACGAUCCGCAGGCAGCAGCAUCACGACAGCCAUCACCCAGCUGCUCACCCAGAUGCCCGCUCUCGUAGGUGCAAACACCAUCCCAGCCCAGGAGCUGGCUGAGCUGUUCCUGGGCCCUGGCCGCUGCAACAGAGGAUUGAGCAUCA
B6: chr1:45693489:45693605:+|CDS|ENSG00000159596|unk|FALSE|unique (ssRNA)
RNA: GGGAGUUCUACAGUCCGACGAUCAAUCCCCUUCGUUGCUCCACCACUGGUCAUGCUGAUGACAAAAACUUAUAUUCCCAUAUUAGCUUUUACUCAGAUGGCUUAUGGAGCCAGUUUCCUAUCUUUCUUGGGUGGGAUCAGAUGCAACAGAGGAUUGAGCAUCA
B7: chr2:5695263:5695412:+|3pUTR|ENSG00000176887|msi1_unk|total|mutant (ssRNA)
RNA: GGGAGUUCUACAGUCCGACGAUCUGGUGAUACCGACCUCAGAGCUGUUAUCUCCGUUUAAAGAUUGUAUAUGUACUGUACUACCGCCGGACUUUAUGUAUCUCAUACGCUGUGAUGUGGAUGGGGCCCCAGAUGGAAGGUUUGCAACAGAGGAUUGAGCAUCA
B8: chr10:92050442:92050545:-|3pUTR|ENSG00000107864|unk|total|mutant (ssRNA)
RNA: GGGAGUUCUACAGUCCGACGAUCAUGAAGGCCUGCCCGCACCCGCGUGGACAUUUUUCCCGCAUUCACCCUUGGGCUGCAGACCGUAAUAUAUAAACACACACAAUGAUUGCAAGACUAUGUAAAUCUUUUUUUAAUCUUCUUCAACAGAGGAUUGAGCAUCA
B9: chr4:24540214:24540319:-|CDS|ENSG00000109606|unk|FALSE|unique (ssRNA)
RNA: GGGAGUUCUACAGUCCGACGAUCUACUUUGUCACAUUUUUGCUUGCUUAAGGCACCGUGUCUAAUAGAUUGUCUUUUACCACUAGCUCCUGAAACUCUGAUGAGAGCCCUGGAACUUUUGAAUUACCUGGCUGCUUUAAAUGACAACAGAGGAUUGAGCAUCA
B10: chr4:175632990:175633131:-|3pUTR|ENSG00000150625|msi1|total|mutant (ssRNA)
RNA: GGGAGUUCUACAGUCCGACGAUCGUUGACACUUUUGGCUUUUAUUUCUGGUAUCCGAGUUUGUAUUUUCACAGAGUGCUUUGCCGCAGGCAUUACAAUUAAUCUGUUUUGUACAUAAAUGUGCCAACAGCUUGAUGGUGGCGUCAACAGAGGAUUGAGCAUCA
B11: chr11:35231115:35231675:+|3pUTR|ENSG00000026508|msi1|total|mutant (ssRNA)
RNA: GGGAGUUCUACAGUCCGACGAUCCAGGACAAGGUUCAAAAUGGUUACAACAGCCUCUACCUGUCGCCCCAGGGAGAAAGGGGCCGUGAUACAAGUCUCACCGCCAGAGAUGGUUUUCCACUCCUUCCCGAUAUUCCCAAAAAGCAACAGAGGAUUGAGCAUCA
B12: chr17:142788:147440:-|three_prime_utr|ENSG00000272636|control|control|control (ssRNA)
RNA: GGGAGUUCUACAGUCCGACGAUCGAGACCUCAGCACCUGCCCAGGGGAAGGGGACACGCCCAUCUGGGAGCAAAGACCCUUCUAGAGGCCAGCCCCGGCUGAGAGGACAGGAGUGUGGGGGCGCCUUGGCGGACAGUGGGAACCAACAGAGGAUUGAGCAUCA
B13: chr5:175441761:175443099:-|CDS|ENSG00000184845|control|control|control (ssRNA)
RNA: GGGAGUUCUACAGUCCGACGAUCGAAGGCAUUUUCAACCCUCUUAGGAUGCUACAGACUUUGCCCUGCGACGAAUAAUGCCAUAGAGACGGUGAGUAUCAAUAACAAUGGGGCCGCGAUGUUUUCCAGCCAUCAUGAGCCACGCAACAGAGGAUUGAGCAUCA
B14: chr5:16781720:16781826:-|CDS|ENSG00000145555|unk|total|mutant (ssRNA)
RNA: GGGAGUUCUACAGUCCGACGAUCCUUCACAGCCCCAUCAUGGAAGCUUUCGGCAAUGCGAAGACCGUGUACAACAACAACUCCCGUCGCUUUGGGAAGUUUGUUCAGCUGAACAUCUGUCAGAAAGGAAAUAUUCAGGGCGGGCAACAGAGGAUUGAGCAUCA
B15: chr14:77132432:77132533:-|3pUTR|ENSG00000177108|unk|FALSE|unique (ssRNA)
RNA: GGGAGUUCUACAGUCCGACGAUCUGUGAUUGCUGGACCCAGAGGCAAGAUCUGCAGAGAUGCCUGUGAGAUAUUUGCUUUCCUAGAGGGGAGUGUGGGCAUGGGAGGGGUCUGAAAAUCAGGACCCAACCCAGCCACUGAAGACAACAGAGGAUUGAGCAUCA
B16: chr3:45835589:45835784:-|CDS|ENSG00000163818|control|control|control (ssRNA)
RNA: GGGAGUUCUACAGUCCGACGAUCGACACCUUCACCAUAGAUGAAGUCUCUGAAGUCCUCAAUGGAUUACAAGCUGUGGUUCAUAGUGAGGUGGAAUCUGAGCUCAUCAACACUGCCUAUACCAAUGUGUUACUUCUGCGACAGCAACAGAGGAUUGAGCAUCA
B17: chr4:168927217:168927233:+|3pUTR|ENSG00000129116|msi1_unk|total|mutant (ssRNA)
RNA: GGGAGUUCUACAGUCCGACGAUCAACCACCCAAAUGACCAAGGCAUAUACCGUAUUUGGAGGAAUCAGGGGUUUGGAAGGAGCCGGGAGGAGAAUGAAGGAAAAUGCAACCAGCAUGAUUACCGUGUGUUCAUUCCGAUAAAACAACAGAGGAUUGAGCAUCA
B18: chr18:47206168:47206892:-|three_prime_utr|ENSG00000215474|control|control|control (ssRNA)
RNA: GGGAGUUCUACAGUCCGACGAUCCAGGUUCAGGAGAACCUAAGGACAAGUGACCUCAAAACAGCAUGGACAACCAUGUAAAAUAGACUGUAGCAGCCAUUCAUUAGUGGGGGGAGGGGGGAGCCAACCAGAGCAGUCAAUGCUCAACAGAGGAUUGAGCAUCA
B19: chr6:125889563:125889680:+|CDS|ENSG00000111912|unk|total|mutant (ssRNA)
RNA: GGGAGUUCUACAGUCCGACGAUCCAAGCAGUCUGGUUCGCCAGAAAGCCGAGCCGAAAACACACUGAACAUACAUGAAGAUUCCGAUAAAGUUAAACUCAUUGAAUAUUACCUGACUAAGAACAAAGAAGGGCCACAGGUAUCCAACAGAGGAUUGAGCAUCA
B20: chr20:4700004:4700108:+|3pUTR|ENSG00000171867|msi1|total|mutant (ssRNA)
RNA: GGGAGUUCUACAGUCCGACGAUCUCACCAUCUUUCUAAUCUUUUUCCAGCUUGAGGGAGGCGGUAUCCACCUGCAGCCCUUUCCGUGGUGGUGUCUCACUCUUUCUUCUCUCUUUGUCCCGGACCGGCUAAUCAAUACCCUUGCAACAGAGGAUUGAGCAUCA
B21: chr17:39792672:39792933:-|CDS|ENSG00000161405|control|control|control (ssRNA)
RNA: GGGAGUUCUACAGUCCGACGAUCAGAGAAUAUAAUGAAUAUGAAAACAUUAAGUUGGAGAGACAUGUUGUCUCAUUCGAUAGUAGCAGGCCAACCAGUGGAAAGAUGAACUGCGAUGUGUGUGGAUUAUCCUGCAUCAGCUUCCAACAGAGGAUUGAGCAUCA
B22: chrX:13708825:13708941:+|CDS|ENSG00000123595|unk|FALSE|unique (ssRNA)
RNA: GGGAGUUCUACAGUCCGACGAUCGAGUUCACUUAUGAACAGAUAUGUAACUAAUAAGUUUGAUACCCAGCUCUUCCAUACAAUAGGUGUGGAAUUUUUAAAUAAAGAUUUGGAAGUGGAUGGACAUUUUGUUACCAUGCAGAUCAACAGAGGAUUGAGCAUCA

These binders were tested against MSI1 full-length (mouse, UniProt Q61474 1-362) (assay: nsRBNS (natural sequence RNA bind-n-seq); RBNS binding buffer (assumed for nsRBNS): 25 mM Tris pH 7.5, 150 mM KCl, 3 mM MgCl2, 0.01% Triton X-100, 500 ug/ml BSA, 20 U/ml SUPERase-In, 4 C; UNK is unkempt and MSI1 is Musashi-1; names of the RNAs are library labels; protein concentration not given here; high values mean tight binding).
Chain of UniProt Q61474 (Q61474 whole entry): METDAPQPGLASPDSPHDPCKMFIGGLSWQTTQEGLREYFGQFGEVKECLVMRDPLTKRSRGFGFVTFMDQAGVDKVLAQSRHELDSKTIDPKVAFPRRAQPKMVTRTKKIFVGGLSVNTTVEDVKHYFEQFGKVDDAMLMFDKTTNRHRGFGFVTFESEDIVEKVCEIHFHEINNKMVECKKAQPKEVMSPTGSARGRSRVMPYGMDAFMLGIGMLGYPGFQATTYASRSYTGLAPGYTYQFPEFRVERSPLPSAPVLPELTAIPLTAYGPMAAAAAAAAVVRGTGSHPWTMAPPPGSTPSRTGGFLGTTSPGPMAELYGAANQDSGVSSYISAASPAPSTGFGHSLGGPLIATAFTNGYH
B1 showed a binding signal of 14.4 enrichment R.
B2 was tested, and the binding signal was 5.59 enrichment R.
B3 was tested, and the binding signal was 0.532 enrichment R.
B4 showed a binding signal of 20 enrichment R.
B5 was tested, and the binding signal was 0.366 enrichment R.
For B6, the binding signal was 0.499 enrichment R.
Binder B7 has a binding signal of 0.588 enrichment R.
B8 was tested, and the binding signal was 1.02 enrichment R.
B9 gave a binding signal of 0.238 enrichment R.
With B10 the binding signal was 0.286 enrichment R.
In the case of B11, the binding signal is reported as 0.427 enrichment R.
In the case of B12, the binding signal is reported as 0.387 enrichment R.
Binder B13 has a binding signal of 0.562 enrichment R.
B14 was tested, and the binding signal was 0.441 enrichment R.
B15 was tested, and the binding signal was 0.392 enrichment R.
Work on B16 yielded a binding signal of 0.332 enrichment R.
Binder B17 has a binding signal of 0.421 enrichment R.
B18 gave a binding signal of 0.913 enrichment R.
With B19 the binding signal was 0.504 enrichment R.
B20 gave a binding signal of 0.763 enrichment R.
In the case of B21, the binding signal is reported as 1.51 enrichment R.
In the case of B22, the binding signal is reported as 12.3 enrichment R.
